Target: T1, IL2Rαβγ (high affinity IL-2 receptor) on human Treg cells (human, UniProt P01589 22-272; P14784 27-551; P31785 23-369)
T1 sequence (looked up) 1: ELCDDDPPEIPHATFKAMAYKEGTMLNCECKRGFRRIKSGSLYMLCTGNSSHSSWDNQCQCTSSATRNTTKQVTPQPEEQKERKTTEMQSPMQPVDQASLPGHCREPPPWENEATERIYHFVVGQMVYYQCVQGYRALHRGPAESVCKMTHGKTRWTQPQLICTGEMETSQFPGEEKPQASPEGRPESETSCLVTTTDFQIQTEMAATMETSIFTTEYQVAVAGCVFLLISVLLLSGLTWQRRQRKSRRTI
T1 sequence (looked up) 2: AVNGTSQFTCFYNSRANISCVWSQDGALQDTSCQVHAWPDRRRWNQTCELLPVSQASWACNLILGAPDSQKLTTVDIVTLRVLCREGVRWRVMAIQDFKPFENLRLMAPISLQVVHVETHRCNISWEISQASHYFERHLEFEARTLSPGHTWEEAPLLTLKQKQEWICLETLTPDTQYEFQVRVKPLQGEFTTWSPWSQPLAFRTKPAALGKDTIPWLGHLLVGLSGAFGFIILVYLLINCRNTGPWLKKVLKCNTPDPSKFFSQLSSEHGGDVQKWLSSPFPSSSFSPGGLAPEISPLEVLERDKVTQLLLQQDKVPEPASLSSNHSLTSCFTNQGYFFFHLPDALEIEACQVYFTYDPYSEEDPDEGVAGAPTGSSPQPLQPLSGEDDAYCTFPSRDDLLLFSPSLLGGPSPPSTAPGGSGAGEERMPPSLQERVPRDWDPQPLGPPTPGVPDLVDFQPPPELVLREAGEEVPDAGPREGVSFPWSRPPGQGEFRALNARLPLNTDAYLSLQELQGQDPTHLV
T1 sequence (looked up) 3: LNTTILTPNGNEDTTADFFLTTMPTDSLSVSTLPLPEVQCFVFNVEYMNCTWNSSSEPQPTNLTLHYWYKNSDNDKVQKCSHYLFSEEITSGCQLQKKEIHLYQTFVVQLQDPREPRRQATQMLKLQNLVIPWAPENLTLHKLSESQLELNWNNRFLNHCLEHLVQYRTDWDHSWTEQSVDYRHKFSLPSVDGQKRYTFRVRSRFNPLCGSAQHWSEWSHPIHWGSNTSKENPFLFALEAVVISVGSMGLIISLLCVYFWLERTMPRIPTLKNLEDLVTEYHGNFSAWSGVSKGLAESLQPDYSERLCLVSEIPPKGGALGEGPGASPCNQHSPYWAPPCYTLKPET
Test: cell-based or functional assay

EC50, pSTAT5 in CD25hi human T cells: 1.9e-09 M
Maximal pSTAT5 response at 10^-8M (% pSTAT5+ cells): 0.97 % pSTAT5+ cells
pSTAT5 response at 10^-8M (% of wt IL-2 response): 63 % of wt IL-2 response
B1: N88RT3AL15AG1 (Fc fusion)
chain: APASSSTKKTQLQLEHLLLDLQMILNGINNYKNPKLTRMLTFKFYMPKKATELKHLQCLEEELKPLEEVLNLAQSKNFHLRPRDLISRINVIVLELKGSETTFMCEYADETATIVEFLNRWITFSQSIISTLTGGGGSGGGGSGGGGS[human IgG1 Fc with changes cut from this listing]

From patent US20190153058A1 (DELINIA, published 2019)
